Measured values published in PubChem BioAssay AID1240 (Sanford-Burnham Center for Chemical Genomics, 2008).
In all, about 50,000 compounds went through this assay and about 800 (1.6%) showed an effect of 50% or more. This is one part of the list.

The compounds below were run against Bcl-2-like protein 10 (Homo sapiens) (UniProt Q9HD36) (assay: Phenotype converters, Bcl-B/TR3 peptide binding displacement, primary biochemical FP (AID 1240;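 note: 0% = Bcl-B with tracer peptide and DMSO and 100% = tracer peptide lacking Bcl-B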)). Settings: GST-Bcl-B / FITC-TR3 peptide fluorescence polarization; stronger effect = higher value; compound at 3.75 mg/L.
UniProt Q9HD36, sequence (Q9HD36 whole entry, looked up): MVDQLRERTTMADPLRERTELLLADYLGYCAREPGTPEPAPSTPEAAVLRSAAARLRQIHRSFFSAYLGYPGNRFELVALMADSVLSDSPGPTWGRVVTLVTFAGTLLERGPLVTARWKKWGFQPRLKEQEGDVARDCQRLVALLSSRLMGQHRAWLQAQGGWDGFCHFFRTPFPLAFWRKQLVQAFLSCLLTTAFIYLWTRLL
Work on O=C(Nc1ccc2c(c1)Cc1ccccc1-2)c1cc2ccccc2o1 yielded a displacement of 134%.
Compound CCOC(=O)C1=C(CC)NC2=C(C(=O)CCC2)C1c1cc2c(cc1[N+](=O)[O-])OCO2 (stereo unspecified) has a displacement of 12.2%.
In the case of O=C(CN(c1ccc(F)cc1)S(=O)(=O)c1ccccc1)N1CCCCCC1, the displacement is reported as -6.7%.
Work on CC(C)(C)c1cc(Br)ccc1OCC(=O)Nc1ccccc1C(F)(F)F yielded a displacement of 15.1%.
Work on COC(=O)c1ccc(NC(=O)CCC2CCCCC2)cc1 yielded a displacement of -5.7%.
COC(=O)C1=C(C)NC(=O)CC1c1ccc(F)c(Br)c1 (stereo unspecified) was tested, and the displacement was 11.4%.
For O=C(Nc1ccccc1)c1cc(S(=O)(=O)NC2CCCCC2)ccc1Br, the displacement was -10.5%.
O=C1S/C(=C/c2ccccc2)C(=O)N1CC(=O)N1c2ccccc2Sc2ccc(Cl)cc21 gave a displacement of 13.1%.
O=C(NC(=S)Nc1ccc2oc(-c3ccccc3)nc2c1)c1ccccc1Cl was tested, and the displacement was 17.8%.
Compound Cn1cnc([N+](=O)[O-])c1Sc1ncnc2c(C#N)c3n(c12)CCCCC3 has a displacement of -9.8%.
Compound COc1ccc(OC)c(NC(=O)CN(c2ccc(C)cc2)S(=O)(=O)c2ccc(OC)c(OC)c2)c1 has a displacement of 9.4%.
With N#Cc1c(N)nc2c(c1-c1ccc(F)cc1)CCCCCC2 the displacement was -5%.
For C/C(=N\N=C1\NC(=O)C(CC(=O)Nc2ccc(Cl)c(Cl)c2)S1)c1ccc(Cl)cc1 (stereo unspecified), the displacement was -2.7%.
In the case of O=C(CC1OC(=O)c2ccccc21)c1ccc(I)cc1 (stereo unspecified), the displacement is reported as -21.4%.
For CN(C)c1ccc(NC2=NC3(CCCCC3)N=C(N)N2)cc1, the displacement was 3.6%.
Compound N#Cc1c(N)n(-c2ccc(Br)cc2)c2nc3ccccc3nc12 has a displacement of 11.9%.
CCOc1c(C)cc2[nH]c(C)nc2c1C was tested, and the displacement was -18.2%.
Compound COc1cc(Br)c(/C=C2\C(=O)N(c3ccc(S(N)(=O)=O)cc3)N=C2C)cc1OC has a displacement of 3%.
In the case of O=C(N/N=C/c1cc([N+](=O)[O-])ccc1Cl)c1cc2ccccc2o1, the displacement is reported as -3.2%.
Work on N/C(=N\OC(=O)COc1cccc2ccccc12)c1cccc([N+](=O)[O-])c1 yielded a displacement of 12.6%.
With COc1ccc(N2C(=O)/C(=C\c3ccc4ccccc4c3)SC2=S)cc1 the displacement was 3%.
O=C(Oc1ccc(/C=N/NC(=O)C(O)c2ccccc2)cc1)c1ccccc1Cl (stereo unspecified) was tested, and the displacement was 2.7%.
Compound O=C(Nc1cccc(Cl)c1)Nc1nnc(Cc2ccc(Cl)cc2)s1 has a displacement of 11.8%.
CN1/C(=C\C(=O)Nc2ccc(Cl)cc2)c2ccccc2CC1(C)C gave a displacement of 20.3%.
For COC(=O)c1ccc(/C=C2/SC(=S)N(C)C2=O)cc1, the displacement was 1.3%.
Compound O=C1c2ccc(Oc3ccc([N+](=O)[O-])cc3)cc2C(=O)N1c1ccc(Cl)cn1 has a displacement of -5.1%.
In the case of Cc1ccc(/C=C(\C#N)c2nn(-c3ccccc3)c(N)c2C#N)cc1, the displacement is reported as 2.5%.
NC(=O)C(=O)Nc1cccc2ccccc12 was tested, and the displacement was 12.8%.
For Cc1ccc(N2C(=O)c3ccccc3NC2c2cccc(F)c2)cc1 (stereo unspecified), the displacement was 16.4%.
O=C(Nc1ccc(Cl)cc1)Nc1ccccc1C(=O)O showed a displacement of -7.5%.
COc1ccc(/C=C\C(=O)c2ccc([N+](=O)[O-])cc2)cc1OC showed a displacement of 12.9%.
COc1ccc(C(=O)c2c(N)c(C#N)c(C)n2-c2ccccc2)cc1 was tested, and the displacement was 9.3%.
Compound CCOc1ccc(NCCC(=O)c2cccs2)cc1 has a displacement of -4.5%.
With Cc1cc(C)c(C=C2C(=O)c3ccccc3C2=O)cc1C the displacement was -1.6%.
In the case of Cc1ccc(NC2=C(Cl)C(=O)N(Cc3ccccc3)C2=O)cc1C, the displacement is reported as 19.5%.
CCc1ccccc1NC(=O)C(F)(Cl)C(F)(F)F (stereo unspecified) was tested, and the displacement was -3.1%.
CCOC(=O)c1c(NC(=O)C2CC2c2ccccc2)sc2c1CCC2 (stereo unspecified) showed a displacement of -10.7%.
COC(=O)C1(C(=O)OC)C(c2ccccc2)C1(C(=O)OC)C(=O)OC showed a displacement of -6.4%.
In the case of Cc1nnc(SCC(=O)Nc2nc3ccccc3s2)s1, the displacement is reported as -6.5%.
C=CCOc1cccc(/C=N/NC(=O)C(=O)Nc2ccc(OC)cc2OC)c1 was tested, and the displacement was 9.2%.
For CCc1ccccc1NC(=O)CN(c1ccc(C(C)C)cc1)S(=O)(=O)c1ccccc1, the displacement was 1.4%.
O=C(NNC(=S)Nc1ccccc1)c1cccnc1 gave a displacement of -28%.
In the case of Nc1nnnn1Cc1nc2ccccc2[nH]1, the displacement is reported as -6.5%.
Compound COc1ccc(C(=O)N/C(=C\c2cccc([N+](=O)[O-])c2)C(=O)NCC(C)C)cc1 has a displacement of 5.9%.
Work on COc1ccc(Br)cc1/C=N/Nc1nc(N2CCOCC2)nc(N2CCOCC2)n1 yielded a displacement of 7.1%.
O=[N+]([O-])c1ccc(C=Nc2ccc(Br)cc2)o1 was tested, and the displacement was -7.9%.
COc1cccc(N(CC(=O)N2CCOCC2)S(=O)(=O)c2ccccc2)c1 was tested, and the displacement was 9.8%.
COC(=O)CN(c1ccc(OC)c(Cl)c1)S(C)(=O)=O showed a displacement of 9.3%.
Compound Cc1cc(C)n2nc(-c3ccc(F)cc3)cc2n1 has a displacement of 6.7%.
Work on CC1=C/C(=N/S(=O)(=O)c2ccc(C)cc2)C=C(Cl)C1=O yielded a displacement of 15.4%.
For O=C(CP(=O)(c1ccccc1)c1ccccc1)N1CCCCC1, the displacement was 6.9%.
CC(=O)Oc1ccc2c(C(F)(F)F)cc(=O)oc2c1 was tested, and the displacement was 22.7%.
For Cc1ccc(/C=C(/C#N)C(=O)Nc2cccc(Br)c2)o1, the displacement was -37.3%.
Work on NC(=O)c1ccc(C(=O)N(C2CCCCC2)C2CCCCC2)cc1 yielded a displacement of -13%.
CCOC(=O)c1cccc(NC(=O)c2ccc(OC)cc2)c1 was tested, and the displacement was 11.1%.
Compound COc1ccc(C(=O)Nc2ccc(Cl)cc2C)cc1 has a displacement of -7.7%.
In the case of c1ccc(Nc2nc(-c3cccs3)cs2)nc1, the displacement is reported as -16.5%.
Work on O=C(N/N=C/c1c[nH]c2ccccc12)c1ccccc1[N+](=O)[O-] yielded a displacement of -9%.
Compound COc1ccc(N=Cc2c(O)n(-c3ccccc3)c(=O)[nH]c2=O)cc1Cl has a displacement of 113%.
In the case of COc1cc(/C=N/O)ccc1OCc1ccc(Cl)cc1, the displacement is reported as -4.6%.
With Cc1nc2ccccn2c1C(=O)NC1CCCCC1 the displacement was -7.6%.
Compound Cc1ccc(C(=O)NCCOc2ccc(Cl)cc2)cc1 has a displacement of -0.2%.
CC(=O)Nc1ccccc1NC(=O)c1ccccc1[N+](=O)[O-] showed a displacement of -6.6%.
In the case of O=c1c2c(nc3cc(-c4cccc(F)c4)[nH]n13)CCS2, the displacement is reported as 9.2%.
Cc1[nH]n(-c2ccccc2)c(=S)c1C=Nc1ccccc1O was tested, and the displacement was 5.5%.
O=C(/C=C/c1ccco1)N(Cc1ccccc1)Cc1ccccc1 gave a displacement of -12.2%.
For COc1ccc(OC(C)C(=O)Nc2ccc(N(C)C)cc2)cc1 (stereo unspecified), the displacement was 9.1%.
For COC(=O)C1=C(C)N(C)C(C)=C(C(=O)OC)C1c1ccccc1OCc1ccccc1, the displacement was -0.9%.
COc1ccc(/C=C(\NC(=O)c2ccccc2)C(=O)Nc2ccc(C)cc2)cc1OC gave a displacement of 0%.
With Cc1ccc(C(=O)N2CCN(c3ccccc3)CC2)cc1C the displacement was 12.7%.
For O=C(Nc1ccc2c(c1)OCO2)c1cnn2c(C(F)(F)F)cc(-c3cccs3)nc12, the displacement was 11.2%.
